According to publication PMC3858276 (2013):

Biological target: T1, phosphorylated SNAP-ADAP fusion protein (ADAP amino acids 570-690) (human, UniProt O15117 570-690, phosphotyrosine (in vitro phosphorylation by Fyn kinase, approx. 90% of each phosphorylation site; sites in Table S1); BG-647 dye on the SNAP-tag)
T1 chain: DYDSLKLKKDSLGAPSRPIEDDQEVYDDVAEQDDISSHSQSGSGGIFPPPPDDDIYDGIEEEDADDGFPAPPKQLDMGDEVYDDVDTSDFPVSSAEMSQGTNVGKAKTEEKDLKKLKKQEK
Assay: MST

- Kd: 1150 nM
B1: Src SH2 domain without biotin (for MST) (domain or fragment)
chain: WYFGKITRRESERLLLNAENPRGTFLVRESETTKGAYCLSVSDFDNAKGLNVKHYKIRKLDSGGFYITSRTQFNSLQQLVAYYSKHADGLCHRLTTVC
